In PubChem BioAssay AID1345082 (National Center for Advancing Translational Sciences (NCATS), 2018):
About 4,000 (4.3%) of roughly 94,000 compounds were called active. Inconclusive means that the source gave no clear call. Such entries were picked first, then a sample of the others. Calls come from the whole dose curve; as a rule, active = well fitted inhibition curve with a large enough effect; inconclusive = small, poorly fitted or top-dose-only effect; inactive = no such curve, though single readings can be large or run the other way. Where the call is inconclusive, the potency comes from a doubtful curve fit.

Assay: Cytotoxic Profiling in NIH 3T3 Cell Line of Diverse Libraries Using Quantitative High-Throughput Screening; note: nearly all actives have a fitted effect of over 55% in size
Settings: NIH 3T3 viability, CellTiter-Glo ATP luminescence, 48-72 h; activity change, negative = cytotoxicity: at 96.7 µM (top of the series); series mostly up to 96.7 µM
Summary of the method: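 ATP-dependent luminescence (CellTiter-Glo) served as the viability signal for NIH 3T3 cells treated with compound for 48 or 72 hr at 37 °C.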
% is set by controls: 0 for no effect and ±100 for the full control effect; potency is the fitted concentration of half-maximal effect; tags give direction and shape of the fitted curve.

Row | Structure (SMILES) | activity change, negative = cytotoxicity | Potency | outcome
1 | COc1ccc(-c2nc3cc(C(=O)NCCCc4ccccc4)ccc3o2)cn1 | inactive: -23.1% |  | 
2 | O=C(Nc1ccc(F)cc1)C1CN(C2CCCCC2)C(=O)N1 (stereo unspecified) | inactive: -24% [at 138 µM] |  | 
3 | CC(C)CCN1CCC2(CC1)CC(=O)Nc1ccccc1O2 | inactive: -17.8% [at 138 µM] |  | 
4 | OC1CCN(c2cc(N3CCOC(c4ccc(F)cc4)C3)ncn2)CC1 (stereo unspecified) |  | inconclusive: 20 µM [inhibitor, full curve, poor fit] | 
5 | CC(C)C[C@@H](NC(=O)[C@@H]1C[C@@H](NS(=O)(=O)c2cccs2)CCN1C(=O)c1cccn1C)C(N)=O |  |  | inactive
6 | Cc1ccc2c(N3CCC(CO)(CN4CCCC4)CC3)ccnc2c1C |  | inconclusive: 20 µM [inhibitor, partial curve, poor fit] | 
7 | COc1ccc(-c2ccnc3nc(CCc4ccc(OC)c(OC)c4)nn23)cc1 |  | inconclusive: 50.1 µM [inhibitor, partial curve, poor fit] | 
8 | CCc1ccc(C(=O)NC2CCN(c3cc(-c4cccs4)[nH]n3)CC2)cc1 |  | inconclusive: 39.8 µM [inhibitor, partial curve] | 
9 | CC1=C[C@@H](CNC(=O)C(C)(C)C)[C@H](C(C)C)C[C@H]1CC(=O)N(C)Cc1cccnc1 |  | inconclusive: 20 µM [inhibitor, full curve, poor fit] | 
10 | Cc1cc(C(=O)N2C[C@@H](CO)[C@H](c3ccncc3)C2)c(C)o1 | inactive: -11% |  | 
11 | COc1ccc(CN2CCC(N3C(=O)c4c(c(C)nn4-c4ccccc4)C3C3CC3)CC2)cc1 (stereo unspecified) |  | inconclusive: 2.51 µM [inhibitor, full curve, poor fit] | 
12 | CC1Oc2ccc(NC(=O)c3c(F)cccc3F)cc2CN(Cc2ccc(Cl)cc2)C1=O (stereo unspecified) |  | inconclusive: 22.4 µM [inhibitor, full curve, poor fit] | 
13 | CN(C)c1cccc(C(=O)NC2CCN(c3cc(-c4ccccc4)[nH]n3)C2)c1 (stereo unspecified) |  | inconclusive: 50.1 µM [inhibitor, partial curve, poor fit] | 
14 | COCCN1C(=O)[C@@H]2C[C@@H](CN2Cc2ccc(OC(F)(F)F)cc2)Oc2ccccc21 |  | inconclusive: 50.1 µM [inhibitor, partial curve, poor fit] | 
15 | O=C(NC1CC(c2cc(NCCO)ncn2)C1)c1cc2ccccc2[nH]1 (stereo unspecified) |  | inconclusive: 79.4 µM [inhibitor, single point] | 
16 | CCN1C(=O)C2(CCN(S(=O)(=O)c3ccc(Cl)cc3C)CC2)c2ccccc21 |  | inconclusive: 11.2 µM [inhibitor, full curve, poor fit] | 
17 | NC1CC(c2cc(N3CCC(OCc4ccccc4)CC3)ncn2)C1 (stereo unspecified) |  | inconclusive: 50.1 µM [inhibitor, partial curve, poor fit] | 
18 | Cc1nnc2ccc(N3CCCC(NC(=O)C4CC4)C3)nn12 (stereo unspecified) | inactive: -11.3% [at 138 µM] |  | 
19 | COC1CCC(C(=O)N2CCc3c(n(CCOc4ccccc4)n(-c4ccccc4)c3=O)C2)CC1 (stereo unspecified) |  | active: 20 µM | 
20 | C=CCOC(=O)C1=C(C)N=C2SC=C(CC(=O)N3CCCC3)N2C1c1cccc(OC)c1OC (stereo unspecified) | inactive: -2.48% |  | 
21 | CC1(CNc2ccccc2)COc2ccc(C(=O)NCc3cccnc3)cc2N1 (stereo unspecified) |  | inconclusive: 100 µM [inhibitor, partial curve, poor fit] | 
22 | COc1ccccc1-c1cccc(CN2CCC(NC(=O)c3ccccn3)CC2)c1 |  | inconclusive: 50.1 µM [inhibitor, partial curve, poor fit] | 

Row | Structure (SMILES) | activity change, negative = cytotoxicity | Potency | outcome
23 | COc1cccc(CNC(=O)Cn2cccc2-c2nc(-c3ccccc3)no2)c1OC | inactive: 2.33% |  | 
24 | COCCNC(=O)[C@@H]1Cc2cn(Cc3ccccn3)c3cccc(c23)[C@H](CC(C)C)N1 |  | inconclusive: 50.1 µM [inhibitor, partial curve, poor fit] | 
25 | O=C(NC1CC1)[C@@H]1C[C@H](Oc2ccccc2)CN1C(=O)c1cc2ccccc2[nH]1 | inactive: -5.94% |  | 
26 | COc1cccc(CC(=O)N2CCC(N3C(=O)c4c(c(C)nn4-c4ccccc4)C3C)CC2)c1 (stereo unspecified) |  | inconclusive: 50.1 µM [inhibitor, partial curve, poor fit] | 
27 | O=C(Nc1ccc(Br)cc1)c1cnc(-c2ccc(F)cc2)nc1-c1ccncc1 |  | inconclusive: 15.8 µM [inhibitor, full curve, poor fit] | 
28 | COc1cc(-c2ccnc3nc(C4CCC4)nn23)cc(OC)c1OC |  | inconclusive: 44.7 µM [inhibitor, partial curve, poor fit] | 
29 | Cc1cnc(C2CCC2)n1CC1CCCN(C(=O)CC2CCCCC2)C1 (stereo unspecified) |  | inconclusive: 12.6 µM [inhibitor, partial curve, poor fit] | 
30 | CC(C)Oc1ccc(CNC(=O)c2cc3n(n2)CC(c2ccc(Cl)cc2)OC3)cc1 (stereo unspecified) |  | inconclusive: 44.7 µM [inhibitor, partial curve, poor fit] | 
31 | O=C(NC1CCCCCC1)c1csc(N2CCN(c3ccccc3)CC2)n1 |  | inconclusive: 50.1 µM [inhibitor, partial curve, poor fit] | 
32 | COC(=O)N1CCC(C(=O)N2CCC(N3CCOCC3=O)CC2)CC1 |  |  | inactive
33 | O=C(NCc1cccc(Cl)c1)C1CCCN1c1nccc(Nc2ccccc2F)n1 (stereo unspecified) |  | inconclusive: 44.7 µM [inhibitor, partial curve, poor fit] | 
34 | COc1ccc2c(c1)C=C(CN1CCCn3nc(C(C)O)cc3C1)CO2 (stereo unspecified) |  | inconclusive: 89.1 µM [inhibitor, partial curve, poor fit] | 
35 | O=C(NCc1ccc(Cl)cc1)[C@@H]1Cc2nc[nH]c2CN1Cc1ccc(Cl)cc1 |  | active: 44.7 µM | 
36 | O=C(NCc1ccc(Cl)cc1)C1CN(C2CCCC2)C(=O)N1 (stereo unspecified) | inactive: -37% [at 138 µM] |  | 
37 | C#CCNC(=O)C1CCCN(c2nccc(Nc3ccc(C)cc3)n2)C1 (stereo unspecified) |  | inconclusive: 39.8 µM [inhibitor, partial curve, poor fit] | 
38 | CC(=O)c1ccc(N2CCN(C(=O)c3cc4n(n3)CC(c3ccc(Cl)cc3)OC4)CC2)cc1 (stereo unspecified) |  | inconclusive: 14.1 µM [inhibitor, full curve, poor fit] | 
39 | COCCCNc1ncnc2c1CN(c1ccccc1)C(=O)CN2C | inactive: -24.8% |  | 
40 | O=C1CCC(CNS(=O)(=O)Cc2ccccc2F)CCN1Cc1ccccc1 (stereo unspecified) | inactive: -25.1% |  | 
41 | COc1ccc(CNC(=O)C[C@@H]2CCNC[C@@H]2Cc2cc(CC3CCCCC3)on2)cc1 |  | active: 28.2 µM | 
42 | COc1ccc(C(=O)N2[C@@H]3CC[C@H]2CC(NC(=O)c2ccc(F)cc2)C3)c(OC)c1 (stereo partly specified) | inactive: -15.9% |  | 
43 | COCCOC1CN(C2CCN(S(C)(=O)=O)CC2)C12CCCCC2 (stereo unspecified) |  |  | inactive
44 | CC(=O)Nc1ccc(CN2CCC(c3nc4ccc(C)cc4c(=O)[nH]3)CC2)cc1 |  | inactive | 

Row | Structure (SMILES) | activity change, negative = cytotoxicity | Potency | outcome
45 | O=S(=O)(c1cccc(F)c1)N1CCCC(Cn2c(C3CC3)nc3cccnc32)C1 (stereo unspecified) |  | inconclusive: 70.8 µM [inhibitor, single point] | 
46 | O=C(NCc1ccco1)[C@@H]1Cc2nc[nH]c2CN1CCCc1ccccc1 |  | inconclusive: 126 µM [inhibitor, partial curve, poor fit] | 
47 | Cc1cc2ncc(C(=O)N3CCC(Cc4ccccc4)CC3)cn2n1 |  | inconclusive: 89.1 µM [inhibitor, partial curve, poor fit] | 
48 | COc1cccc(-c2noc(-c3ccc(-c4cn[nH]c4)nc3)n2)c1OC | inactive: -21.1% |  | 
49 | CC(C)C1=NOC2(CCN(C(=O)c3ccccc3)C2)C1 (stereo unspecified) |  |  | inactive [at 138 µM]
50 | COc1ccc(N2CC3CCC(C2)N3Cc2ccc(C#N)cc2)cc1 | inactive: -20.7% |  | 
51 | COCC1CN(C)CC12CCN(C(=O)c1cccc(Br)c1)CC2 (stereo unspecified) |  | inconclusive: 70.8 µM [inhibitor, single point] | 
52 | O=c1c2nc(Nc3cccnc3)ccc2ncn1-c1ccccc1 | inactive: -18.7% [at 138 µM] |  | 
53 | Cc1ccc(Nc2ccnc(N3CCCC3C(=O)NCc3cccs3)n2)cc1 (stereo unspecified) |  | inconclusive: 63.1 µM [inhibitor, partial curve, poor fit] | 
54 | O=C1CCCCC(C(=O)NCCCN2CCc3ccccc3C2)N1 (stereo unspecified) | inactive: -11% |  | 
55 | Cc1cccc(OCC(=O)c2ccc3c(c2)N(C(C)C(=O)Nc2ccccc2)C(=O)CO3)c1C (stereo unspecified) |  | inconclusive: 12.6 µM [inhibitor, full curve, poor fit] | 
56 | O=C(c1ccc(N2CC3CC(C2)[C@H]2CCCC(=O)N2C3)nc1)N1CCC(Cc2ccccc2)CC1 (stereo partly specified) |  | inconclusive: 50.1 µM [inhibitor, partial curve, poor fit] | 
57 | Cc1ccc(-c2nnc(CN3CCC4(CC3)CC(=O)N(CC(C)C)C4)o2)n1C |  | inconclusive: 63.1 µM [inhibitor, partial curve, poor fit] | 
58 | COc1ccc(N2CCN(c3nc(C(=O)N4CCN(C)CC4)cs3)CC2)cc1 | inactive: -11.4% |  | 
59 | CCS(=O)(=O)Nc1ccc(C2(C(=O)NCc3ccc4c(c3)OCO4)CCCCC2)cc1 |  | inconclusive: 50.1 µM [inhibitor, single point] | 
60 | COc1ccccc1-n1cnc2cccnc21 |  | inconclusive: 100 µM [inhibitor, partial curve, poor fit] | 
61 | Cc1ccc(C2Cn3nnc(C(=O)NC4CCN(Cc5ccccc5)CC4)c3CO2)cc1 (stereo unspecified) |  | inconclusive: 44.7 µM [inhibitor, partial curve, poor fit] | 
62 | CNC(=O)c1nn(C)c2nc(-c3ccccc3OC)ccc12 | inactive: -24.5% [at 138 µM] |  | 
63 | COc1ccc(CC(=O)N[C@H](C)c2c(-c3ccc(F)cc3)noc2C(=O)O)cc1 | inactive: -25.3% [at 138 µM] |  | 
64 | CNC(=O)CCn1ncc2cc(OC3CCc4cccc(-c5ccnc(OC)c5)c43)ccc21 (stereo unspecified) |  | inconclusive: 39.8 µM [inhibitor, partial curve] | 
65 | COc1cccc(C(=O)Nc2cc(-c3ccccn3)nn2-c2ccccc2)c1 | inactive: -33.4% |  | 
66 | COc1ccc(N2CCN(c3nc(C(=O)NCc4ccc(C)c(C)c4)cs3)CC2)cc1 |  | inconclusive: 25.1 µM [inhibitor, full curve, poor fit] | 
